Experimental data published in patent publication US20240076346A1 (KAHR MEDICAL, published 2024).

Tests used:
[1] = biological target: T1, human PDL1 expressed on cells (human, UniProt Q9NZQ7); experiment: flow cytometry on DLD1-PDL1 overexpressing cells against DLD1 WT, supernatant in dilutions, detection with APC anti-PD1 antibody
T1 construct: whole, on cells
Method: Following incubation of the cells with DSP402, binding of the heterodimer to the DLD1 PDL1 overexpressing cell line was determined by immuno-staining of its PD1 domain using an anti-PD1 antibody, followed by flow cytometry analysis. DLD-1 WT cells were used as a negative cell control for the binding assay. MFI values are presented and were used to create a binding curve graph with a FlowJo software.
Binding of the PD1 domain of the SIGLEC-10-PD1 heterodimer referred to herein as “DSP402” to human PDL1 was determined using DLD1-PDL1 cell line overexpressing PDL1 and an APC conjugated anti-PD1 as a detector antibody (FIG. 11A). DLD1-WT cells, which express low levels of endogenous PDL1, served as a control (FIG. 11A).

[2] = biological target: T2, human CD47 expressed on cells (human, UniProt Q08722); experiment: flow cytometry on JEG-3 cells (CD47 and HLA-G), with or without CD47 blocker, detection with anti-human IgG1
T2 construct: whole, on cells; also called hCD47
Method: Binding of the heterodimers to the cell line was determined following incubation with or without a blocking antibody, as indicated, by immuno-staining of the IgG backbone using anti human-IgG1 antibody, followed by flow cytometry analysis. GMFI values are presented and were used to create binding curve graphs with the GraphPad Prism software.
In the same manner, specific dose dependent binding of the LILRB2 domain to human HLA-G and the specific dose dependent binding of the SIRPα domain to CD47 of other SIRPα-LILRB2 heterodimers referred to herein as “DSP216V3”, “DSP216V4”, “DSP216V5” and “DSP216V6” were determined using a HT1080-HLA-G cell line overexpressing HLA-G or JEG3 cell line (both lines expressing both human CD47 and human HLA-G) using an anti-human HLA-G blocking antibody or an anti-human CD47 blocking antibody (FIGS. 16C-17F, an APC conjugated anti-human IgG1 or an APC conjugated anti-SIRPα antibody was used as a detector antibody).

[3] = biological target: T3, Human CD47 protein HIS Tag (recombinant, plate bound) (human, UniProt Q08722 part only); experiment: ELISA on plate bound recombinant human CD47, detection with anti-human IgG1-HRP
T3 construct: Bought reagent; not shown: His tag
Method: (§1) Supernatants containing the heterodimers were incubated in CD47 pre-coated 96-well plates. Binding was detected by incubation with an anti-human IgG1- or IgG4-HRP antibody, detection with a TMB substrate, according to a standard ELISA protocol using a plate reader (Thermo Scientific, Multiscan FC) at 450 nm, with reference at 620 nm. O.D. values were used to create a binding curve graph with a GraphPad Prism software.
(§2) Binding of heterodimers to their counterpart ligands/receptors by Sandwich ELISA—Flat bottom 96-wells plates were pre-coated with receptor/ligand of one arm of the analyzed-heterodimer by incubating overnight at 4° C. with a recombinant counterpart protein such as CD47 protein, PDL1 protein, HLA-G protein, or PVR protein, followed by blocking and washing. Serially diluted cell culture supernatant or purified protein samples containing the produced heterodimers were added to the corresponding pre-coated wells. […] Thereafter, in case where the detected Ab was not HRP-labeled, HRP conjugated secondary Ab or streptavidin-HRP was added. Detection was effected with a TMB substrate according to standard ELISA protocol using a plate reader (Thermo Scientific, Multiscan FC) at 450 nm, with reference at 620 nm. […]

[4] = biological target: T3, Human CD47 protein HIS Tag …; experiment: ELISA on plate bound recombinant human CD47, detection with anti-human IgG4-HRP
Method: as §1, §2

[5] = biological target: T1, human PDL1 expressed on cells; experiment: flow cytometry on K562 PD-L1 cells, detection with APC anti-human TIGIT
Method: MFI values presented were used to create binding curve graphs with a FlowJo software. […] The surface expression levels of PDL1 and PVR were determined by immuno-staining of the cells with a fluorescently labeled anti-PDL1 or anti-PVR antibody, as indicated, followed by flow cytometry analysis.
In addition, dose dependent binding of the PD1 and TIGIT domains of DSP502 and another TIGIT-PD1 heterodimer referred to herein as “DSP502V4” (which contains a LALA mutation on the Fc-IgG1 domains) to human PDL1 and human PVR, respectively, were determined using a K562 PD-L1 cell line overexpressing PD-L1, a K562 cell line overexpressing PVR, as well as K562 PVR/PD-L1 cell line overexpressing both PVR and PD-L1 (FIGS. 19A-I).

T1 sequence (Q9NZQ7 19-290): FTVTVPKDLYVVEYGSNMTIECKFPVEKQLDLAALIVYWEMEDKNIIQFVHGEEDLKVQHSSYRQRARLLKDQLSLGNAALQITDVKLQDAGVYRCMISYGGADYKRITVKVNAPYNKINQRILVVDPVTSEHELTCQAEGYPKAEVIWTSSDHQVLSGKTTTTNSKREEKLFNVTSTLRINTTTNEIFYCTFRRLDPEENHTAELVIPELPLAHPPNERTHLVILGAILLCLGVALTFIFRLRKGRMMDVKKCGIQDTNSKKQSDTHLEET

B1: SIGLEC10-PD1 heterodimer DSP402 (Fc fusion)
chain 1: DGRFWIRVQESVMVPEGLSISVPCSFSYPRQDWTGSTPAYGYWFKAVTETTKGAPVATNHQSREVEMSTRGRFQLTGDPAKGNCSLVIRDAQMQDESQYFFRVERGSYVRYNFMNDGFFLKVTALTQKGGGGSGGGGSGGGGS[letters of human IgG1 Fc with changes not shown]
chain 2: DSPDRPWNPPTFSPALLVVTEGDNATFTCSFSNTSESFVLNWYRMSPSNQTDKLAAFPEDRSQPGQDSRFRVTQLPNGRDFHMSVVRARRNDSGTYLCGAISLAPKAQIKESLRAELRVTERRAEVPTAHPSPSPRPAGQGGGGSGGGGS[letters of human IgG1 Fc with changes not shown]
notes: Knob-into-hole IgG1 Fc heterodimer made in Expi293F
- binding result [1]: binds

B2: SIRPα-LILRB2 heterodimer DSP216V3 (Fc fusion)
chain 1: EEELQVIQPDKSVLVAAGETATLRCTATSLIPVGPIQWFRGAGPGRELIYNQKEGHFPRVTTVSDLTKRNNMDFSIRIGNITPADAGTYYCVKFRKGSPDDVEFKSGAGTELSVRAKGGGGSGGGGS[letters of human IgG1 Fc with changes not shown]
chain 2: QTGTIPKPTLWAEPDSVITQGSPVTLSCQGSLEAQEYRLYREKKSASWITRIRPELVKNGQFHIPSITWEHTGRYGCQYYSRARWSELSDPLVLVMTGAYPKPTLSAQPSPVVTSGGRVTLQCESQVAFGGFILCKEGEEEHPQCLNSQPHARGSSRAIFSVGPVSPNRRWSHRCYGYDLNSPYVWSSPSDLLELLVPGVSKKPSLSVQPGPVVAPGESLTLQCVSDVGYDRFVLYKEGERDLRQLPGRQPQAGLSQANFTLGPVSRSYGGQYRCYGAHNLSSECSAPSDPLDILITGQIRGTPFISVQPGPTVASGENVTLLCQSWRQFHTFLLTKAGAADAPLRLRSIHEYPKYQAEFPMSPVTSAHAGTYRCYGSLNSDPYLLSHPSEPLELVVSGGGGSGGGGSGGGGS[letters of human IgG1 Fc with changes not shown]
notes: as for B1
- binding result [2]: binds
- binding result [3]: binds

B3: SIRPα-LILRB2 heterodimer DSP216V1 (Fc fusion)
chain 1: [letters of about 350 residues not shown]GGGGSGGGGS[letters of human IgG4 Fc with S228P L235E Y349C T366W (EU numbers) not shown]
chain 2: QTGTIPKPTLWAEPDSVITQGSPVTLSCQGSLEAQEYRLYREKKSASWITRIRPELVKNGQFHIPSITWEHTGRYGCQYYSRARWSELSDPLVLVMTGAYPKPTLSAQPSPVVTSGGRVTLQCESQVAFGGFILCKEGEEEHPQCLNSQPHARGSSRAIFSVGPVSPNRRWSHRCYGYDLNSPYVWSSPSDLLELLVPGVSKKPSLSVQPGPVVAPGESLTLQCVSDVGYDRFVLYKEGERDLRQLPGRQPQAGLSQANFTLGPVSRSYGGQYRCYGAHNLSSECSAPSDPLDILITGQIRGTPFISVQPGPTVASGENVTLLCQSWRQFHTFLLTKAGAADAPLRLRSIHEYPKYQAEFPMSPVTSAHAGTYRCYGSLNSDPYLLSHPSEPLELVVSGGGGSGGGGSGGGGSESKYGPPCPPCPAPEFEGGPSVFLFPPKPKDTLMISRTPEVTCVVVDVSQEDPEVQFNWYVDGVEVHNAKTKPREEQFNSTYRVVSVLTVLHQDWLNGKEYKCKVSNKGLPSSIEKTISKAKGQPREPQVYTLPPSQCEMTKNQVSLSCAVKGFYPSDIAVEWESNGQPENNYKTTPPVLDSDGSFFLVSRLTVDKSRWQEGNVFSCSVMHEALHNHYTQKSLSLSLGK
notes: Knob-into-hole IgG4 Fc heterodimer made in Expi293F; tested as crude supernatant and as purified protein
- binding result [4]: binds

B4: SIRPα-LILRB2 heterodimer DSP216V4 (Fc fusion)
chain 1: EEELQVIQPDKSVLVAAGETATLRCTATSLIPVGPIQWFRGAGPGRELIYNQKEGHFPRVTTVSDLTKRNNMDFSIRIGNITPADAGTYYCVKFRKGSPDDVEFKSGAGTELSVRAKGGGGSGGGGS[letters of human IgG4 Fc with S228P L235E Y349C T366W (EU numbers) not shown]
chain 2: QTGTIPKPTLWAEPDSVITQGSPVTLSCQGSLEAQEYRLYREKKSASWITRIRPELVKNGQFHIPSITWEHTGRYGCQYYSRARWSELSDPLVLVMTGAYPKPTLSAQPSPVVTSGGRVTLQCESQVAFGGFILCKEGEEEHPQCLNSQPHARGSSRAIFSVGPVSPNRRWSHRCYGYDLNSPYVWSSPSDLLELLVPGVSKKPSLSVQPGPVVAPGESLTLQCVSDVGYDRFVLYKEGERDLRQLPGRQPQAGLSQANFTLGPVSRSYGGQYRCYGAHNLSSECSAPSDPLDILITGQIRGTPFISVQPGPTVASGENVTLLCQSWRQFHTFLLTKAGAADAPLRLRSIHEYPKYQAEFPMSPVTSAHAGTYRCYGSLNSDPYLLSHPSEPLELVVSGGGGSGGGGSGGGGSESKYGPPCPPCPAPEFEGGPSVFLFPPKPKDTLMISRTPEVTCVVVDVSQEDPEVQFNWYVDGVEVHNAKTKPREEQFNSTYRVVSVLTVLHQDWLNGKEYKCKVSNKGLPSSIEKTISKAKGQPREPQVYTLPPSQCEMTKNQVSLSCAVKGFYPSDIAVEWESNGQPENNYKTTPPVLDSDGSFFLVSRLTVDKSRWQEGNVFSCSVMHEALHNHYTQKSLSLSLGK
notes: Knob-into-hole IgG4 Fc heterodimer made in Expi293F
- binding result [4]: binds

B5: TIGIT-PD1 heterodimer DSP502V4 (Fc fusion)
chain 1: MTGTIETTGNISAEKGGSIALQCHLSSTTAQVTQVNWEQQDQLLAISNADLGWHISPSFKDRVAPGPGLGLTLQSLTVNDTGEYFCIYHTYPDGTYTGRIFLEVLESSVAEHGGGGSGGGGS[letters of human IgG1 Fc with changes not shown]
chain 2: DSPDRPWNPPTFSPALLVVTEGDNATFTCSFSNTSESFVLNWYRMSPSNQTDKLAAFPEDRSQPGQDSRFRVTQLPNGRDFHMSVVRARRNDSGTYLCGAISLAPKAQIKESLRAELRVTERRAEVPTAHPSPSPRPAGQGGGGSGGGGSEPKSSDKTHTCPPCPAPEAAGGPSVFLFPPKPKDTLMISRTPEVTCVVVDVSHEDPEVKFNWYVDGVEVHNAKTKPREEQYNSTYRVVSVLTVLHQDWLNGKEYKCKVSNKALPAPIEKTISKAKGQPREPQVCTLPPSRDELTKNQVSLSCAVKGFYPSDIAVEWESNGQPENNYKTTPPVLDSDGSFFLVSKLTVDKSRWQQGNVFSCSVMHEALHNHYTQKSLSLSPGK
- binding result [5]: binds
